Measured values: ChEMBL document CHEMBL4888484, “Replenishing the malaria drug discovery pipeline: Screening and hit evaluation of the MMV Hit Generation Library 1 (HGL1) against asexual blood stage Plasmodium falciparum ,using a nano luciferase reporter read-out” (2022)
Screen size: about 150,000 compounds; about 540 (0.36%) showed an effect of 50% or more. Some of the results follow.

Tested on: Plasmodium falciparum
Assay: Primary screen in NF54 nanoGlo assay, in single point, at 2uM, 72h; a lower Z score goes with more inhibition
Type: functional, Erythrocyte
Conditions: timepoint 72 hour

Row | SMILES | % Inhibition [%] | Z score | % Inhibition (2 µM) [%]
1 | Cc1cccc(C(=O)Oc2ccc(-n3ccnc3)cc2)c1 | 44 | -5.69 | –
2 | Cc1ccc2cc(CN(Cc3cccc(O)c3)C3CC3)c(=O)[nH]c2c1 | -10 | 1.8 | –
3 | O=C(CCc1ccco1)NCc1ccco1 | -10 | 1.09 | –
4 | CCCN(CCC)C(=O)c1ccccc1NS(=O)(=O)CCC | -4 | 0.51 | –
5 | CNS(=O)(=O)c1ccc(-c2nccn2[C@@H](C)c2nncn2C)cc1 | 8 | -0.99 | –
6 | CCCOc1ccc2nc(NC(=O)c3sc(COc4cccc(C)c4)nc3C)sc2c1 | -23 | 2.02 | –
7 | COCCN(Cc1ccco1)c1nc2ccccc2c2nc(C)nn12 | -2 | 0.26 | –
8 | Cc1ccc(S(=O)(=O)Nc2cc(C(=O)O)ccc2N(C)CCc2c(C)noc2C)c(C)c1 | -13 | 1.29 | –
9 | Cc1nc(N)sc1C(=O)OC(C)C | -1 | 0.19 | –
10 | O=c1cc2n(c(=O)[nH]1)CC(c1ccccc1)=NN2 | – | – | -4
11 | O=C(CNC1CCCCC1)Nc1nc(-c2ccccc2)cs1 | -10 | 1.19 | –
12 | Cc1cc(N)ccc1-c1nc2cc(F)ccc2n1C1CC1 | -2 | 0.4 | –
13 | CO[C@@H](C)CS(=O)(=O)Nc1nonc1NC(=O)C(C)(C)C | -7 | 1.09 | –
14 | c1ccn2c([C@H]3CCCN(Cc4ccoc4)C3)nnc2c1 | -14 | 2.72 | –
15 | CCc1ccc(CN(CC)Cc2cnn(CC)c2)s1 | 8 | -1.1 | –
16 | CCn1nc(C)c(-c2cccc(C(=O)NCCCN3CCCC3=O)c2)c1C | 2 | -0.32 | –
17 | CN1CCN(C(=O)Cn2ccc(NCC3(C)CCOCC3)n2)CC1 | -1 | 0.22 | –
18 | Cc1ncc(C(=O)N[C@@H](C)c2nc(CC(C)C)no2)c(O)n1 | -1 | 0.19 | –
19 | Cc1nc(-c2ccc(-c3ccn[nH]3)cc2)n(-c2ccccn2)n1 | 7 | -0.95 | –
20 | CC[C@@](C)(C(=O)NC1CCCC1)N(C(=O)CNC(=O)c1ccccc1)c1c(C)n(C)n(-c2ccccc2)c1=O | -1 | 0.2 | –
21 | Cc1noc(C)c1C[C@H](C)C(=O)N(C)C | -5 | 0.82 | –
22 | Cc1cc(=O)c(C(=O)N[C@@H](CC(C)C)C(N)=O)c(C)[nH]1 | -2 | 0.31 | –

Row | SMILES | % Inhibition [%] | Z score | % Inhibition (2 µM) [%]
23 | O=C1C[C@@H](C(=O)N2CCCCC2)CCN1 | 1 | -0.06 | –
24 | O=C(NCCn1cncn1)c1cccc(F)c1F | -6 | 1.07 | –
25 | Cc1cc(C(=O)OCCNc2cccnn2)ccc1F | -5 | 0.45 | –
26 | CC[C@H](O)Cn1cc(-c2nc(-c3cc(C)ccn3)no2)nn1 | -38 | 4.04 | –
27 | Cc1cnccc1CCNCC12CC(CN1C(=O)OC(C)(C)C)C2 | -6 | 0.55 | –
28 | CC(C)c1cccc(OCC(=O)NC2CCC(Oc3cnccn3)CC2)c1 (stereo not drawn) | -8 | 1.14 | –
29 | CCOC(=O)c1sc([C@H](C)Nc2ncc(Cl)cn2)nc1C | -2 | 0.21 | –
30 | CO[C@H]1COCC[C@@H]1NS(=O)(=O)c1c(C)cc(C)c2nonc12 | -8 | 0.86 | –
31 | CCOC(=O)N1N=C(C)C[C@]1(O)c1cccnc1 | -21 | 2.29 | –
32 | COc1ccc(Nc2cc(C(C)C)nc3nc(-c4cccnc4)nn23)cc1 | -5 | 0.74 | –
33 | Cc1ncc(CNC(=O)N(CCC(F)(F)F)C2CCC2)s1 | 30 | -3.44 | –
34 | CC(=O)N1CCC(Cc2ccc(C(=O)N3CCc4ccccc4C3)cc2)CC1 | 2 | -0.2 | –
35 | CCCCOc1ccc(-c2cc3c4nnc(CCC(=O)NC5CCCC5)n4ccn3n2)cc1 | 7 | -0.97 | –
36 | COc1ccc(NC2CC3CCC2C3)cc1OC (stereo not drawn) | -6 | 1.19 | –
37 | Cc1ccc([C@@](C)(O)CNS(=O)(=O)c2cnn(C)c2)o1 | 0 | 0.06 | –
38 | COc1nccnc1O[C@H]1CCCN(C(=O)Cc2ccccc2)C1 | -5 | 0.88 | –
39 | COc1ccc2cc3c(nc2c1)N(C(=O)C(C)(C)C)CC3 | -3 | 0.29 | –
40 | C[C@@H](CNc1ncnc2ccsc12)CN1CCCC1=O | -3 | 0.26 | –
41 | Cn1cncc1C1CCN(C(=O)Cc2ccc(Cl)cc2)CC1 | 0 | 0.03 | –
42 | CCOc1ccc(-c2nc(CS(=O)(=O)Cc3coc(-c4ccccc4)n3)cs2)cc1OC | 6 | -0.7 | –
43 | Cc1ccc(C(=O)NCc2ccc(F)cc2)c(C2CCN(CC3CC3)CC2)n1 | -2 | 0.29 | –
44 | Cc1ccnc(NS(=O)(=O)c2cc(C)sc2C)n1 | 1 | -0.06 | –

Row | SMILES | % Inhibition [%] | Z score | % Inhibition (2 µM) [%]
45 | CCNC(=O)C(C)N1C(=O)NC(C)(c2ccc3c(c2)OCO3)C1=O (stereo not drawn) | 3 | -0.37 | –
46 | CC[C@H](OC)C(=O)N1Cc2nc(C)[nH]c(=O)c2C1 | -3 | 0.43 | –
47 | CCn1nccc1C(=O)N1CC(c2nc(CCOCc3ccccc3)no2)C1 | -6 | 0.84 | –
48 | O=C(NCCc1nccs1)[C@@H]1CCCCn2nnnc21 | -15 | 1.6 | –
49 | Cc1csc2ncnc(NCc3cccnc3N3CCOCC3)c12 | 4 | -0.71 | –
50 | CCn1nc(CC(C)C)cc1C(=O)N(C)CCc1ccccn1 | -3 | 0.61 | –
51 | Cc1noc(-c2cccnc2N2CCCO[C@@H](C)C2)n1 | -13 | 1.58 | –
52 | O=C1C[C@@H](c2ccccc2)N(C(=O)CNC(=O)c2ccco2)CCCCCN1 | -18 | 2.36 | –
53 | Cc1ccsc1[C@H]1CCN(C2CCN(Cc3ccccn3)CC2)C[C@@H]1O | 0 | -0.04 | –
54 | Cc1ccc(S(=O)(=O)Nc2cccc(-c3nc(-c4ccccc4C)co3)c2)cc1 | -11 | 1.42 | –
55 | O=C(CCN[C@@H](CO)C(=O)O)c1ccc(Br)cc1 | -4 | 0.5 | –
56 | c1csc(-c2nnc(CN3CC[C@]4(CCOC4)C3)o2)c1 | -7 | 0.88 | –
57 | Cc1ccc(S(=O)(=O)c2cn(C[C@H]3CCCO3)c(=O)n(-c3ccccc3)c2=O)cc1 | 3 | -0.34 | –
58 | COc1ccccc1-c1cn[nH]c1-c1ccc(OCc2cc(C)ccc2C)cc1O | 0 | 0 | –
59 | COC[C@@H](O)CNCc1cc2cc(C)c(C)cc2o1 | -14 | 1.22 | –
60 | COc1ccc([C@@H](NC(=O)CN2C(=O)N(C)C3(CCCCC3)C2=O)c2nccn2C)cc1 | -2 | 0.26 | –
61 | COc1ccc(CCNC(=O)Cn2c(=O)n(Cc3ccccc3)c(=O)c3cc(Cl)ccc32)cc1OC | 2 | -0.27 | –
62 | CN(Cc1cc(C2CC2)on1)Cc1cccnc1N | -7 | 1.32 | –
63 | C[C@@](O)(CNS(=O)(=O)c1cccnc1)Cc1ccco1 | -17 | 2.43 | –
64 | CC(C)OC1CN(C(=O)[C@H]2CCC(=O)N(c3cnn(C)c3)C2)C1 | 1 | -0.22 | –
65 | CCN(CCNS(=O)(=O)c1ccccc1)CC(=O)Nc1ccc(NC(C)=O)cc1 | 30 | -2.69 | –
66 | COc1cccc(NC(=O)Nc2ccnc(OC)n2)c1 | -5 | 0.82 | –

Row | SMILES | % Inhibition [%] | Z score | % Inhibition (2 µM) [%]
67 | Cc1cc2n(CCNS(=O)(=O)N(C)C)ccn2n1 | -3 | 0.62 | –
68 | O=C(Cn1nc(C(=O)N2CCCC2)ccc1=O)Nc1ccccc1F | -10 | 2.06 | –
69 | Cc1noc(C)c1S(=O)(=O)N(C)Cc1ccc(C2CC2C)o1 (stereo not drawn) | 2 | -0.21 | –
70 | CCC(NC(=O)NC(C)c1cn(C)nc1C)c1nccs1 (stereo not drawn) | -10 | 1.85 | –
71 | O=S1(=O)CC[C@H](CNS(=O)(=O)c2ccc(Cl)s2)C1 | 5 | -0.72 | –
72 | Cc1ccc(-c2cc(C(F)(F)F)on2)cc1S(=O)(=O)N1CCCC[C@@H]1C | -4 | 0.61 | –
73 | Cc1nccn1[C@@H](C)C(=O)NCCn1nnc2ccccc21 | -23 | 2.94 | –
74 | N#Cc1ccc(C(=O)N2CCC3(CCC(=O)N(CCc4ccncc4)C3)CC2)cc1 | -15 | 1.39 | –
75 | COCCN1CC2(CCC1=O)CCN(CCCC(=O)c1ccccc1)CC2 | -7 | 0.86 | –
76 | CC(=O)c1ccc(CN2CCC3(CC2)N=C(c2ccccn2)NC3=O)cc1 | 2 | -0.25 | –
77 | CCC[C@H]1CN(C(=O)c2csc(C)n2)C[C@@H]1N(C)C | -8 | 0.8 | –
78 | Cc1nsc(NC(=O)N2CCC(CN3CCCC3=O)CC2)n1 | 6 | -0.82 | –
79 | CCOc1ccc(C(=O)NC[C@@H](C(C)C)N(CC)CC)cc1 | -6 | 1.13 | –
80 | CCn1c(CCc2ccc(NC(=O)Nc3cc(Cl)c(OC)cc3OC)cc2)nc2ccccc21 | -12 | 1.86 | –
81 | O=C(Nc1ccccn1)c1ccc2c(c1)OCCO2 | -5 | 0.7 | –
82 | Cc1c(CNc2nnc(Cc3ccc(F)cc3)s2)cnn1C | -11 | 1.42 | –
83 | Cc1cc2[nH]c(=O)[nH]c2cc1-n1ccnc1-c1cc2n(n1)CCCNC2 | -6 | 0.99 | –
84 | O=C1CCc2cc(OS(=O)(=O)c3ccc4c(c3)OCCO4)ccc2N1 | 30 | -3.86 | –
85 | Cc1nnnn1CCc1ncnn1CCc1ccccc1 | 3 | -0.47 | –
86 | O=C(NCc1noc(CCc2ccccc2)n1)c1ccccc1 | -8 | 1.16 | –
87 | CN(C(=O)[C@@H]1COc2ccccc2C1)C1CCS(=O)(=O)CC1 | 0 | -0.03 | –
